Reference: US12582619B2 (priority 2020, dated 2026)

Each compound was assayed on SARS-CoV-2 Spike protein. Conditions: Vero E6 lysates, 10 μM, FIG. 7.
In the case of `COc1cc(NC(=N)NCCC(C)(C)c2ccc(C(F)(F)F)cc2)ncc1C#N` [Compound F, 1-(5-cyano-4-methoxypyridin-2-yl)-3-(3-methyl-3-(4-(trifluoromethyl)phenyl)butyl)guanidine], the Spike protein level is reported as “clear decrease”.

The compounds below were run on SARS-CoV-2 Spike protein. Conditions: not given.
For `N=C(NCCCOc1ccc(F)cc1)Nc1ccc(Cl)cc1` [CT189], the “SARS-CoV-2 Spike protein level” value was “striking decrease”. For `COc1cc(NC(=N)NCCC(C)(C)c2ccc(C(F)(F)F)cc2)ncc1C#N` [Compound F, 1-(5-cyano-4-methoxypyridin-2-yl)-3-(3-methyl-3-(4-(trifluoromethyl)phenyl)butyl)guanidine], the “SARS-CoV-2 Spike protein level” value was “striking decrease”. For `COC(=O)c1ccc(NC(=N)NCC(C)(C)COc2ccc(C(F)(F)F)cc2)nc1` [Compound H, methyl 6-(3-(2,2-dimethyl-3-(4-(trifluoromethyl)phenoxy)propyl)guanidino)nicotinate], the “SARS-CoV-2 Spike protein level” value was “striking decrease”. For `Cc1cc(OCCN2CCOCC2)nn1-c1ccc2ccccc2c1` [Compound S1RA, 4-[2-[[5-methyl-1-(2-naphthalenyl)-1H-pyrazol-3-yl]oxy]ethyl]morpholine, reference compound], the “SARS-CoV-2 Spike protein level” value was “did not”. In the case of `N=C(Nc1ccc(I)cc1)NC1C2CC3CC(C2)CC1C3` (stereo not drawn) [IPAG, reference compound], the “SARS-CoV-2 Spike protein level” value is reported as “striking decrease”.
